Some of the results follow.

The assay concerns PfHDP1 homeodomain (GST-tagged). Nature of the assay: gcPBM binding intensity (ln(normalized median fluorescence intensity)); higher = stronger DNA binding. In short, it runs like this: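 GST-tagged P. falciparum DNA-binding domains produced in E. coli were incubated for 1 h on an Agilent 4 × 180k array of primer-extended double-stranded 36-bp intergenic genomic probes with negative controls. Binding intensity is the highest Masliner-normalised natural-log median intensity across replicate spots of either probe orientation, with bound protein detected by Alexa488 anti-GST antibody at 488 nm.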
For the sequence “AAATAAAATATATACATATATATATTATTTAGTAAT [XGTACX_negctrl_site375]”, the “gcPBM binding intensity (ln)” value was 6.28.
Regarding “TATGTATATTATATGACACACATTTATATATATATA [CACACA_site1167]”, the “gcPBM binding intensity (ln)” value came to 8.77.
The figure for “AATAAATAAATAAATATATATATATATATATATATG [CACACA_negctrl_site899]” is 7.21; for “TTTTGTTGATTTATATCTGTAGGGTTTAATATAACA [XGTACX_negctrl_site174]” it is 6.2.
Take TTATTTTTGTGTAAGGTGCTATATATAATGTTTTTA: the “gcPBM binding intensity (ln)” value was 7.05.
“AAAAAGGATAAACACACACACACACCGATATATATA [CACACA_site8206]”: the “gcPBM binding intensity (ln)” value was 6.97.
As for “AACGAAATCATCAAGTGTACTAGTTTATTATTAATA [XGTACX_site6161]”, the “gcPBM binding intensity (ln)” value was 6.29.
The figure for “AAATGTGATATAAGTACACACACATATGTATATATA [CACACA_site8539]” is 6.7; for “ATATTATATATATACACACACACATGCATGCACCTA [CACACA_site106]” it is 9.86.
Consider “TTTTTTAAATATATGGTGCATAGAAAGATATTATAC [GTGCAC_site9984]”, for which the “gcPBM binding intensity (ln)” value worked out at 9.71.
For the sequence “ACATGTGAACATTCAATGCACACGATGTAATTATAC [CACACA_site14]”, the “gcPBM binding intensity (ln)” value was determined as 8.41.
For the sequence “ATGTGTTAAAAATGCACACAAAAAAATATACATATA [CACACA_site295]”, the “gcPBM binding intensity (ln)” value was found to be 9.92.
For “CTTAAATTTTACTGAAGTACAAAATCGGTTCAATGA [XGTACX_site3292]”, the “gcPBM binding intensity (ln)” value worked out at 6.1.
As for “TATACATATTTTTTTTGTACATATATAATATATATA [XGTACX_site2399]”, the figure is 6.59; as for “GGGAAAAAAAAAAGCACACATACGTAAATATATAAC [CACACA_site226]”, 6.6; as for “AATTAAATTCGGTACTGTACATTTCAAAAATATACG [XGTACX_site48]”, 6.15.
In the case of “CAATTATATAATTGAAGTACTAGGAAAGATATATAT [XGTACX_site5459]”, the “gcPBM binding intensity (ln)” value came out at 7.09.
Turning to “TAAAAAAATATTACATGTACATAAAATATATATATA [XGTACX_site4633]”, the “gcPBM binding intensity (ln)” value was found to be 8.22.
Regarding “TTTAAAAAAAGCAGTACATGCAAAATAATAACAAGC [TGCATGCA_site392]”, the “gcPBM binding intensity (ln)” value was 7.52.
Take “TTGCATTAATTTATGTGTACATATAAATTTTTATTT [XGTACX_site3060]”: the “gcPBM binding intensity (ln)” value turned out to be 6.94.
Take “TATAAATATAAATATACACACATATATATATATATA [CACACA_site1678]”: the “gcPBM binding intensity (ln)” value was 9.33.
Turning to “CTTATAGGTCATTTCCTTGACCCCCTTTGTTGTACT [CACACA_negctrl_site551]”, the “gcPBM binding intensity (ln)” value was 6.45.
Consider “ATCAGTCGGCAGGACAGTACACAGTAGCCAGAAAAT [XGTACX_site2550]”, for which the “gcPBM binding intensity (ln)” value turned out to be 6.46.
With “AAAGAATTTGCATATACACACAAAAAAATATATACA [CACACA_site386]”, the “gcPBM binding intensity (ln)” value came out at 7.12.
With “GTGTAGATATTGAAATGTACTCTCCATATAAAATAA [XGTACX_site4713]”, the “gcPBM binding intensity (ln)” value amounted to 6.13.
As for “TTACGATACTTTAGGTGTACACAAATATACATGAAT [XGTACX_site4322]”, the “gcPBM binding intensity (ln)” value was 7.
The figure for “ATATATATATATATATGTACTTATTTATTTATATTA [XGTACX_site4646]” is 9.38.
Take “ATTCTACTTTTATTTATTTATTTGTTTATATATATA [XGTACX_negctrl_site609]”: the “gcPBM binding intensity (ln)” value stood at 7.2.
For the sequence “GAATGAATACGTTTTACACACTTGAATCTAATTTCA [CACACA_site6593]”, the “gcPBM binding intensity (ln)” value was found to be 6.33.
As for “TTTTTTATTCATGTAACACACATTTAATTATGAATT [CACACA_site2706]”, the “gcPBM binding intensity (ln)” value is 6.63.
Turning to “GAAAAATTAAAACCTACACACACATTTAAAAAAAAA [CACACA_site9005]”, the “gcPBM binding intensity (ln)” value amounted to 6.44.
As to “ATAAATACATATGTGTGTACACATTATATATATATA [XGTACX_site1486]”, the “gcPBM binding intensity (ln)” value came out at 9.17.
For the sequence “ATATATATATAATCATCACACATGCAGCCCTGATGA [CACACA_site5500]”, the “gcPBM binding intensity (ln)” value came out at 8.51.
Consider “TATATATTACATACATGTACCCAAAAAAAAAAAAAA [XGTACX_site1168]”, for which the “gcPBM binding intensity (ln)” value amounted to 6.52.
Turning to “AAAAAATTAGATTATGCACACACACTAATAAATAAT [CACACA_site8604]”, the “gcPBM binding intensity (ln)” value stood at 9.67.
For “AACAAAATTGAAGGAACACACATACATATTTATATA [CACACA_site6227]”, the “gcPBM binding intensity (ln)” value is 6.5.
The figure for “TTTATTTAAGAAAAATGTACAGGTTCATTTCATAAT [XGTACX_site27]” is 6.1; for “CATATAAATACATGCACACAAAAATATCAATACATT [CACACA_site2392]” it is 8.76; for “ATTTGTTCCTTGGGAGTTTACTTTTTTTTAATTTTA [CACACA_negctrl_site638]” it is 6.55.
Regarding “TATAAAAATATATATATATATATATATATAATATGT [TGCATGCA_negctrl_site85]”, the “gcPBM binding intensity (ln)” value was determined as 7.01.
For “TTAAAAAAAAAACACACACACATACCCATATATATA [CACACA_site5768]”, the “gcPBM binding intensity (ln)” value turned out to be 6.9.
In the case of “TTCTTTTTAATTAATACACACACACCCATATATATA [CACACA_site8719]”, the “gcPBM binding intensity (ln)” value worked out at 7.3.
For the sequence “GGTCTAACAACATGCGCACACACATGAATATTCATA [CACACA_site1539]”, the “gcPBM binding intensity (ln)” value is 8.13.
“TAAGTATAAAAAAATAGTACAATTATGAAATATCGT [XGTACX_site2529]”: the “gcPBM binding intensity (ln)” value was 6.6.
